Laboratory results as given in publication PMC12136788.
This is one part of the list.

B1: chr11:46383557:46383658:+|3pUTR|ENSG00000110492|msi1_unk|FALSE|overlapping (ssRNA)
RNA: GGGAGUUCUACAGUCCGACGAUCCCACGCCCUCCCUCUCCCAGGCCCGAGAUGUGACCCACCAGUGCCUUCUGUCUGCUCGUUAGCUUUAAUCAAUCAUGCCCUGCCUUGUCCCUCUCACUCCCCAGCCCCACCCCUAAGUGCCAACAGAGGAUUGAGCAUCA
B2: ENSG00000145990:stop:overlap|stop_codon|ENSG00000145990|stop_codon|NA|stop_codon (ssRNA)
RNA: GGGAGUUCUACAGUCCGACGAUCUGAGCCCCGCCUACCUGAUCAGCGAGGCCAUGCGCCGCAGCAGGAUGUCCCUCUACUGUUAGCACAGAUUGAGAACCUCGGGGACUUGAGCCUUCUGCAGGGGAUGUCCACAGAGAGGGACAACAGAGGAUUGAGCAUCA
B3: chr3:107805913:107806014:+|3pUTR|ENSG00000114439|msi1_unk|total|mutant (ssRNA)
RNA: GGGAGUUCUACAGUCCGACGAUCUACAUGGAGAUUUAAGUUUAAGAUGGUUUAUAUAACCGGUUAUACCUACAUUUAUAUUGCCGAAUAAAUAUUAAAAAGCCUGUUCCAGAGACUCCCAAGCAGCCUGGGCAGGCAGAUGUACAACAGAGGAUUGAGCAUCA
B4: chr17:67075675:67075776:-|3pUTR|ENSG00000198265|unk|FALSE|unique (ssRNA)
RNA: GGGAGUUCUACAGUCCGACGAUCAUUCCUUAUUUCCAUAGCCAGUCAAGGAUUCUAACGCUGCUUCCAUCUGAUACUCUUCUUAGAUUCUGCAUCAAAUGCUUAUUUUGACUUACAACAAGCUUACUCUUCCUCAGCAUUACACAACAGAGGAUUGAGCAUCA
B5: chr5:55424853:55425205:-|three_prime_utr|ENSG00000067113|control|control|control (ssRNA)
RNA: GGGAGUUCUACAGUCCGACGAUCCAAGCCUUUAAAGACUUCUGCUGCUGCUAUGCCUCUUGGAUGCACACUUUGUGUGUACAUAGUUACCUUUAACUCAGUGGUUAUCUAAUAGCUCUAAACUCAUUAAAAAAACUCCAAGCCCAACAGAGGAUUGAGCAUCA
B6: chr16:46798953:46799054:-|3pUTR|ENSG00000155330|unk|total|mutant (ssRNA)
RNA: GGGAGUUCUACAGUCCGACGAUCUCUAUAUUUUUUUCUUUGCCUUAUUGCACUGGUUGGGACUUUUUGCCUUGAUCCAGUUGCCGGGGGGAAACAUUCAGUCAUUAAGCAUUAAAUAACUUUGUUGUUGUUGUGGGCUUGAAACAACAGAGGAUUGAGCAUCA

Biological target: MSI1 full-length (mouse, UniProt Q61474 1-362)
Chain of UniProt Q61474 (Q61474 whole entry): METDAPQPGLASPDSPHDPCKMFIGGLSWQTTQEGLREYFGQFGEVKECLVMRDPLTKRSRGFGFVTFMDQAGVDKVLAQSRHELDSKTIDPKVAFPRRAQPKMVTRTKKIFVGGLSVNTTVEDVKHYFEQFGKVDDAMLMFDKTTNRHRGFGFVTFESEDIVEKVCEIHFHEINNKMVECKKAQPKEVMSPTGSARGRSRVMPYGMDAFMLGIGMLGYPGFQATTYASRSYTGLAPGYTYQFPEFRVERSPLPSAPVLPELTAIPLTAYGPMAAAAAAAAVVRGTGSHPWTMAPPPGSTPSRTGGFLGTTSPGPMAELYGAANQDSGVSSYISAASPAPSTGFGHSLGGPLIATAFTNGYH
Assay: nsRBNS (natural sequence RNA bind-n-seq); RBNS binding buffer (assumed for nsRBNS): 25 mM Tris pH 7.5, 150 mM KCl, 3 mM MgCl2, 0.01% Triton X-100, 500 ug/ml BSA, 20 U/ml SUPERase-In, 4 C; UNK is unkempt and MSI1 is Musashi-1; names of the RNAs are library labels; protein concentration not given here; high values mean tight binding

Compared with B1, B2 is lower in binding signal: 1.31 enrichment R for the first, 0.305 enrichment R for the second.

First: B3
Second: B4
The binding signal of the first is lower: 0.451 enrichment R for the first, 3.7 enrichment R for the second.

Compared with B5, B6 is lower in binding signal: 0.854 enrichment R for the first, 0.306 enrichment R for the second.
